Source: ChEMBL document CHEMBL4888484, “Replenishing the malaria drug discovery pipeline: Screening and hit evaluation of the MMV Hit Generation Library 1 (HGL1) against asexual blood stage Plasmodium falciparum ,using a nano luciferase reporter read-out” (2022)
Hit rate of the full screen: of about 150,000 compounds, about 540 (0.36%) showed an effect of 50% or more. Some of the results follow.

system: Plasmodium falciparum; assay: Primary screen in NF54 nanoGlo assay, in single point, at 2uM, 72h; a lower Z score goes with more inhibition; assay type: functional, Erythrocyte; conditions: timepoint 72 hour

Row | SMILES | % Inhibition | Z score
1 | O=C(NC[C@H](N1CCOCC1)C(F)(F)F)c1nc2c(s1)CCC2 | -7% | 0.87
2 | CCN(Cc1c(CO)cnc(C)c1O)C[C@H]1CCCO1 | -9% | 1.32
3 | Cc1ccc(C(=O)N(CC(=O)N2CCc3sccc3[C@@H]2COc2ccccc2C)C(C)C)cc1 | -4% | 0.74
4 | CN1CCN(c2cc(N3CCC([C@H](O)C(=O)NC4CC4)CC3)ncn2)CC1=O | -32% | 3.72
5 | CCOC(=O)c1cnn(CCN2CCOC[C@@H]2C)c1N | -6% | 1.17
6 | CC(C)c1ccc(N2CCC[C@H](CCC(N)=O)C2)nn1 | 11% | -1.25
7 | C[C@@H](CN(C)Cc1cnn(C2CCCC2)c1-c1ccccc1)C(=O)O | -9% | 0.94
8 | CCNC(=O)N1CCCc2cnc(N3CCOCC3)nc21 | -16% | 1.78
9 | CC(C)C(=O)NCC(=O)Nc1ccc(C(F)(F)F)cc1 | 35% | -4.74
10 | CC1CCC(NC2CC(=O)N(C(C)C)C2=O)C(C)C1 (stereo not given) | -11% | 1.45
11 | Cc1cccc(CCCn2ccnn2)c1 | -1% | 0.11
12 | CC/C(C)=C/CCc1ccccc1-c1nnc(C)o1 | -15% | 1.74
13 | Cc1cccc(NC(=O)C2[C@H]3C=C[C@@]4(O3)C(C(=O)NC3CCCCC3C)N(C3CCCCCC3)C(=O)[C@@H]24)c1 (stereo not given in full) | -9% | 1.37
14 | Cc1cc2occ(C(=O)NS(=O)(=O)C(C)C)c2cc1C | -11% | 1.38
15 | COc1ccc(-c2cn(CCN3CCOCC3)nn2)cn1 | -11% | 1.65
16 | O=C(NCc1cccc(COC2CCOCC2)c1)c1c[nH]nc1-c1ccsc1 | 2% | -0.24
17 | CC1CN(c2ccc(NCc3cnc(N4CCOCC4)nc3)cc2)CC(C)O1 (stereo not given) | -14% | 2.33
18 | Cc1ccc(CN2C(=O)OC(c3cccc(NC(=O)c4cccs4)c3)C2C(=O)NCC(C)C)cc1 (stereo not given) | -11% | 2.05
19 | Cc1cc2ccccc2n1CC(=O)N1CCC(c2nc3ccccc3o2)CC1 | -11% | 1.22
20 | CC(C)c1cnc(-c2cnn(C)c2)s1 | -4% | 0.64
21 | Cc1nc(-c2ccc(NC(=O)c3ccc4ccccc4n3)cc2)co1 | 17% | -2.32
22 | C=CCNc1nc(-c2ccc(C)c(C)c2)cc(C(F)F)n1 | -43% | 5.04

Row | SMILES | % Inhibition | Z score
23 | CCCN(Cc1c(C)nn(-c2cccc(F)c2)c1N1CCN(CC)CC1)C(=O)Cc1ccc(F)cc1 | -10% | 0.98
24 | Brc1cccnc1NCc1cccc2cn[nH]c12 | 1% | -0.13
25 | Cc1cccc(Nc2nc(C)c(C(=O)N(C)Cc3ccccc3)s2)n1 | -4% | 0.56
26 | COc1ccc(-n2nc(C)c3c2NC(=O)C[C@@H]3c2ccc(OCC(C)C)c(OC)c2)nn1 | -5% | 0.58
27 | COc1ccsc1C(=O)N(CCC#N)CC(C)(C)C | -13% | 1.23
28 | COc1ccc(CN(CC(C)C)CC2CCN(Cc3ccccc3OC)CC2)cc1O | -4% | 0.74
29 | CCn1cnnc1CN1C[C@@H]2NC(=O)CN(CCOC)C(=O)CCc3ccc(OC)c(c3)Oc3cccc(c3)CO[C@H]2C1 | -7% | 0.88
30 | CCc1cc(C#N)ccc1NC(=O)N1C[C@H]2CCC[C@@]2(CO)C1 | -16% | 3.04
31 | CN(c1ccc(F)c(F)c1)S(=O)(=O)c1ccsc1-c1nc(-c2cccnc2)no1 | 3% | -0.4
32 | CCOc1ccc(OS(=O)(=O)c2ccc3c(c2)C(=O)N(C)C3=O)cc1 | -16% | 3.02
33 | CC1(C)C[C@@H](CNc2ccc3nncn3n2)CCO1 | 6% | -0.76
34 | O=C(c1c[nH]cn1)N1CC[C@@H](c2cccs2)S(=O)(=O)CC1 | 7% | -1.21
35 | COC[C@@H]1[C@H](C(=O)NC2CCCCC2)CCCN1Cc1ccccc1 | -2% | 0.27
36 | O=C(CNc1ccccc1N1CCCCC1)Nc1ccc2c(c1)CCC2 | -7% | 1.01
37 | CCc1cnc([C@H](C)NC(=O)c2cccc3nn[nH]c23)s1 | -11% | 1.48
38 | Cc1ccc(NC(=O)N2CC[C@H](N3CCN(C)CC3)[C@H](CCC(=O)O)C2)c(C)c1 | 16% | -2.12
39 | CC(C)(C)CN1C[C@@H](NC2Cc3ccccc3C2)CC1=O | 4% | -0.49
40 | COCCNC(=O)c1ccc(NC(=O)N2CC[C@H]2c2ccc(F)cc2)cc1 | -6% | 0.9
41 | CC(C)(C)OC(=O)N1CCC(c2c(C(=O)NCCN3CCOCC3)cnn2C(C)(C)C)CC1 | -13% | 1.97
42 | O=C(OC1C2CC3C(=O)OC1C3C2)c1ccc2ncccc2c1 (stereo not given) | -7% | 0.9
43 | COc1cc(-c2onc(C)c2C(=O)NCc2cnc(C)cn2)cc(OC)c1OC | -13% | 1.88
44 | CCc1ccc(C(=O)N2CCC(Nc3nccs3)CC2)c(O)c1 | -5% | 0.72

Row | SMILES | % Inhibition | Z score
45 | COc1c(C)ncnc1N1CCC[C@H](c2ncc[nH]2)C1 | -5% | 0.64
46 | COc1cc(CCc2nc(C)ccc2O)cc(S(=O)(=O)O)c1OC | -15% | 1.76
47 | COC1CCC(C)(CNC(=O)N2CCC3(CC2)NC(=O)CO3)CC1 (stereo not given) | -8% | 1.29
48 | C[C@@H](Cn1cncn1)NC(=O)Nc1cc(-c2ccco2)ccc1F | 5% | -0.97
49 | CC[C@@H](CN(C)C)NC(=O)N(C)Cc1ccnc(C)c1 | -3% | 0.64
50 | C[C@H](NC(=O)N1CCC(C2CCOCC2)CC1)c1cscn1 | -4% | 0.53
51 | Cc1nc2ccc(CN[C@@H](C)CCn3cccn3)cc2[nH]1 | -2% | 0.49
52 | Cc1nc(Cn2nnc(NC(=O)NC3CCCCC3C)c2C)no1 (stereo not given) | 6% | -1.11
53 | O=C(NC1CC1)C1CN(c2cc(-n3ccnc3)ncn2)C1 | 14% | -1.9
54 | CC(C)(C(=O)N1CCn2c(cc3cc(Cl)ccc32)C1)S(C)(=O)=O | -11% | 2.17
55 | Cc1c(CN2C[C@@H]3NCCO[C@H]3C2)[nH]c2c(Cl)cccc12 | -4% | 0.55
56 | NCc1ccc(F)cc1Br | -24% | 2.37
57 | CC(C)C(=O)NCCN(C)[C@H]1CCc2ccccc2NC1=O | -8% | 1.05
58 | C=CCN(Cc1nccn1Cc1ccccc1Cl)S(=O)(=O)c1ccc(OC)cc1 | -17% | 3.03
59 | Cc1ccc(CNC(=O)c2snc(C(=O)NC(C)C)c2N)o1 | -20% | 1.89
60 | O=C(c1cccc(S(=O)(=O)N2CCOCC2)c1)N1CCc2ccccc2C1 | -8% | 0.92
61 | CC[C@@]1(C)CCCN(c2cc(=O)n(C)c(=O)n2C)C1 | -6% | 1.22
62 | COC(=O)[C@@H]1C[C@H](O)CN1Cc1ccccc1N(C)C | -11% | 1.65
63 | Cc1ccc(-c2cc(NC(=O)c3ccccc3)c(=O)n(CC(=O)Nc3ccc(F)cc3)n2)cc1 | -10% | 1.6
64 | CC(C)[C@@H]1N(C(=O)C2(C)COC2)CC12CCC2 | 0% | 0.05
65 | COc1cc2c(cc1O)NC(=O)C[C@H]2c1c(C)nn(C)c1Cl | -2% | 0.2
66 | CCN1CCC[C@H](c2[nH]cnc2-c2ccccc2)C1 | -12% | 1.56

Row | SMILES | % Inhibition | Z score
67 | CCOc1ncccc1C(=O)N1CCNC(=O)C[C@@H]1C | 1% | -0.07
68 | CN1CCN(C(=O)CCc2conc2-c2ccccc2)CC1 | 7% | -0.91
69 | Cc1cc(S(=O)(=O)N2CCC[C@@H]2CN)c(C)s1 | -4% | 0.56
70 | NC(=O)c1c(NC(=O)c2ccno2)sc2c1CCCC2 | -15% | 2.27
71 | CN(CC(=O)NC1CC1)C1CCCCCC1 | -7% | 1.08
72 | Cn1c(C2CC2)nn(C[C@H]2CCOC2)c1=O | 4% | -0.61
73 | CC(C)C(=O)N1CCC(c2nn(C)c3c2COCC3)CC1 | -1% | 0.12
74 | Cc1cc(C(=O)N[C@@H](CC(N)=O)c2ccccc2)nn1C | 33% | -3.68
75 | O=S(=O)(c1ccccc1)N1CCC(NC2Cc3ccccc3C2)CC1 | -9% | 1.23
76 | COc1cc(Cl)c(CN2CCN3C(=O)NC[C@H]3C2)cc1Cl | 5% | -0.71
77 | Cc1nc(C2CC2)ncc1C(=O)N1CC[C@@](O)(C2CCOCC2)[C@H](C)C1 | -10% | 0.85
78 | COc1ccc(N2CCN(C(=O)Cn3c4ccccc4c4cnn(C)c(=O)c43)CC2)cc1 | -11% | 2.02
79 | CN(CCOC(C)(C)C)C1CCC(CO)CC1 (stereo not given) | 13% | -1.84
80 | CCOc1ccccc1NC(=O)C[C@H]1C(=O)Nc2ccccc2N1C(=O)COc1ccc(C)cc1 | 5% | -0.71
81 | N#Cc1cccnc1NC1CCCC2OCCC12 (stereo not given) | 27% | -3.07
82 | CC(C)(C)OC(=O)N1CCNCC1(C)C | 11% | -1.32
83 | CCc1n[nH]c2c1CN([C@@H](C)CCc1c[nH]c3ccccc13)CC2 | -2% | 0.32
84 | CCc1sc(C(=O)Nc2cc(C(N)=O)ccc2CN2C(=O)CN(C)C2=O)cc1C | -28% | 4.31
85 | CC(C)n1cc(S(=O)(=O)Nc2ccccc2F)c2cccnc21 | 5% | -0.92
